Measurements reported in PubChem BioAssay (Tox21).
This list was built around the results that the source calls inconclusive (neither active nor inactive); the mix of calls is not that of the screen. For some assays here: A potency beside an inconclusive call is a rough fit, not a confirmed value. Active and inactive are the calls of the source. Unless noted, the call rests on the fitted dose curve; in most records, active means well fitted curve in the direction sought with a large enough effect in the repeat runs; inconclusive means weak or mixed curves; inactive means no such curve, though single readings can be large; an effect the other way counts as inactive or inconclusive.

Legend:
[1] = qHTS assay to identify small molecule antagonists of the peroxisome proliferator-activated receptor delta (PPARd) signaling pathway - cell viability counter screen (AID 743213); details: PPARd-bla HEK293H viability, CellTiter-Glo luminescence, 17 h; viability change, negative = cytotoxic: at 62 µM (top of the series) unless noted; further: nearly all actives have a fitted effect of over 50% in size; further: potency means the concentration at half of the fitted maximal effect
Outline: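 HEK293H PPARd UAS-bla cells, 5 h pre-incubation, compound + L165041 300 nM final, 17 h 37 C; B/G FRET substrate 2 h RT; then CellTiter-Glo 30 min RT, luminescence.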

[2] = biological target: Bile acid receptor (Homo sapiens) (UniProt Q96RI1); assay: qHTS assay to identify small molecule antagonists of the farnesoid-X-receptor (FXR) signaling pathway (AID 743217; active means well fitted inhibition curve with a large enough effect in the signal ratio in the repeat runs, not every such curve was filed as active; inconclusive means weak or mixed curves, or effect the other way; inactive means no such curve, though single readings can be large or run the other way; the % refers to the signal ratio; further: potency means the concentration at half of the fitted maximal effect); details: HEK293T FXR-UAS-bla, beta-lactamase ratio, CDCA-stimulated, 16 h; activity change, negative = inhibition: at 62.6 µM (top of the series) unless noted
UniProt Q96RI1, sequence (Q96RI1 whole entry, looked up): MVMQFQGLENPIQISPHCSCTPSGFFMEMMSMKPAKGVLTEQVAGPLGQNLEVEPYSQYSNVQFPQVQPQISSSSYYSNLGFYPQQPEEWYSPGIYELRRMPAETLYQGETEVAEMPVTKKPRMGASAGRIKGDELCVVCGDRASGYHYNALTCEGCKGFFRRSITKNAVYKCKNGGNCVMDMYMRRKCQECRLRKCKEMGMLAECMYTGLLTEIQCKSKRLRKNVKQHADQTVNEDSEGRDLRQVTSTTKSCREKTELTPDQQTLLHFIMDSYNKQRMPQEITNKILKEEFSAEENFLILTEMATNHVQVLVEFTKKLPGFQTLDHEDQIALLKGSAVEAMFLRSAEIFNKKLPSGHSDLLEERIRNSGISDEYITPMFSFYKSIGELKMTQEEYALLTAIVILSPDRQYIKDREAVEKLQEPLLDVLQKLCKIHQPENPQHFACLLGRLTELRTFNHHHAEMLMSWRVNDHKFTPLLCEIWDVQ
Outline: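 Cells carrying a UAS-driven beta-lactamase reporter (GeneBLAzer FXR-UAS-bla HEK 293T) were plated and rested 5 h at 37 °C. Compounds in DMSO were added alongside chenodeoxycholic acid agonist at 50 uM final and left 16 h at 37 °C before FRET substrate readout.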

[3] = qHTS assay to identify small molecule agonists of the farnesoid-X-receptor (FXR) signaling pathway - cell viability counter screen (AID 743218); details: FXR-bla HEK293T viability, CellTiter-Glo luminescence, 16 h; viability change, negative = cytotoxic: at 62.6 µM (top of the series) unless noted; further: nearly all actives have a fitted effect of over 45% in size; further: potency means the concentration at half of the fitted maximal effect
Outline: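 Cells were seeded, left 5 h at 37 C and 5% CO2, then dosed with compound in DMSO for 16 h. After the beta-lactamase FRET read, CellTiter-Glo was added and luminescence measured 30 min later.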

[4] = qHTS assay to identify small molecule antagonists of the farnesoid-X-receptor (FXR) signaling pathway - cell viability counter screen (AID 743221; active means well fitted cell-killing curve with a large enough effect in the repeat runs, not every such curve was filed as active; inconclusive means weak or mixed curves, or effect the other way; inactive means no such curve, though single readings can be large or run the other way; further: potency means the concentration at half of the fitted maximal effect; nearly all actives have a fitted effect of over 50% in size); details: FXR-bla HEK293T viability, CellTiter-Glo luminescence, 16 h; activity change, negative = cytotoxicity: at 62.6 µM (top of the series)
Outline: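 Cytotoxicity is taken from ATP luminescence (CellTiter-Glo, 30 min, room temperature) in FXR-bla HEK 293T cells previously incubated 16 h at 37 C with compound and chenodeoxycholic acid at 50 uM final.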

[5] = biological target: Vitamin D3 receptor (Homo sapiens) (UniProt P11473); assay: qHTS assay to identify small molecule agonists of the vitamin D receptor (VDR) signaling pathway (AID 743222; calls by dose curve; further: potency means the concentration at half of the fitted maximal effect); details: HEK293T VDR-UAS-bla, beta-lactamase FRET ratio, 16 h; activation: at 63.5 µM (top of the series) unless noted
UniProt P11473, sequence (P11473 whole entry, looked up): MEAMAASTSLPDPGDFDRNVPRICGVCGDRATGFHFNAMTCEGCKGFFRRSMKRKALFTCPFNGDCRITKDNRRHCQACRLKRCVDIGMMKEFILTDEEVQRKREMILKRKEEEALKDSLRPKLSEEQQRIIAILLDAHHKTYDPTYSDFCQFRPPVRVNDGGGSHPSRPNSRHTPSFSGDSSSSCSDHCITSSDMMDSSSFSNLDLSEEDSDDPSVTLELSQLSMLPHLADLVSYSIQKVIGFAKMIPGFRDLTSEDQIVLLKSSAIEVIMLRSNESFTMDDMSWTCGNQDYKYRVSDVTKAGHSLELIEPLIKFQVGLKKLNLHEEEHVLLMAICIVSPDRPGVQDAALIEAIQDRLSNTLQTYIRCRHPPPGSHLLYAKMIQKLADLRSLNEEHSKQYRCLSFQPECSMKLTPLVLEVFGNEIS
Outline: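 Cells carrying a VDR-driven beta-lactamase reporter are seeded at 2,000 per well and rested 4 h. Compounds in DMSO are added for 16 h at 37C, and FRET substrate fluorescence is measured after 2 h at room temperature.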

[6] = qHTS assay to identify small molecule agonists of the vitamin D receptor (VDR) signaling pathway - cell viability counter screen (AID 743224); details: VDR-bla HEK293T viability, CellTiter-Glo luminescence, 16 h; activity change, negative = cytotoxicity: at 62.6 µM (top of the series); further: nearly all actives have a fitted effect of over 50% in size; further: potency means the concentration at half of the fitted maximal effect
Outline: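 Cells: VDR-bla, 2,000/well, settled 4 h. Treatment: compounds in DMSO, 16 h, 37C/5% CO2. Readout: CellTiter-Glo luminescence after 30 min RT.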

[7] = qHTS assay to identify small molecule antagonists of the vitamin D receptor (VDR) signaling pathway - cell viability counter screen (AID 743225); details: VDR-bla HEK293T viability, CellTiter-Glo luminescence, 16 h; viability change, negative = cytotoxic: at 61 µM (top of the series) unless noted; further: potency means the concentration at half of the fitted maximal effect; nearly all actives have a fitted effect of over 50% in size
Outline: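 Same-well multiplex: following 16 h treatment of HEK 293T cells carrying a UAS-driven beta-lactamase reporter with compound and agonist (3 nM final), and a 2 h FRET substrate step, CellTiter-Glo was added and luminescence read after 30 min.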

[8] = qHTS assay to identify small molecule agonists of the endoplasmic reticulum stress response signaling pathway (AID 1159516; active means well fitted activation curve with a large enough effect in the signal ratio in the repeat runs, not every such curve was filed as active; inconclusive means weak or mixed curves, or effect the other way; the % refers to the signal ratio; further: potency means the concentration at half of the fitted maximal effect; on activation: on the % scale 0 is the no-effect control and ±100 the full control effect); details: ESRE-bla HeLa, ER stress beta-lactamase reporter, 5 h; activation: at 61 µM (top of the series) unless noted
Outline: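 Cells are seeded at 1,500 per well and incubated overnight. Compounds in DMSO are added for 5 hr at 37 C, then beta-lactamase FRET substrate for 2 hr at room temperature, and fluorescence at 460 and 530 nm is measured.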

[9] = qHTS assay to identify small molecule antagonists of the retinoid-related orphan receptor gamma (ROR-gamma) signaling pathway - cell viability counter screen (AID 1159520); further: nearly all actives have a fitted effect of over 50% in size; further: potency means the concentration at half of the fitted maximal effect
Outline: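 Tet-on ROR gamma CHO cells (1,000/well) were plated 4 hr, given compounds in DMSO for 2 hr at 37 C, then induced with 1 uM final doxycycline for 16 hr. Viability was read as ATP by CellTiter-Glo luminescence after 30 min.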

[10] = biological target: Retinoic acid receptor RXR-alpha (Homo sapiens) (UniProt P19793); assay: qHTS assay to identify small molecule agonists of the RXR signaling pathway (AID 1159527; calls by dose curve; further: nearly all actives have a fitted effect of over 35% in size; further: potency means the concentration at half of the fitted maximal effect; on activation: on the % scale 0 is the no-effect control and ±100 the full control effect); details: HEK293T RXRa-UAS-bla, beta-lactamase ratio, 16 h; activation: at 76.8 µM (top of the series) unless noted
UniProt P19793, sequence (P19793 whole entry, looked up): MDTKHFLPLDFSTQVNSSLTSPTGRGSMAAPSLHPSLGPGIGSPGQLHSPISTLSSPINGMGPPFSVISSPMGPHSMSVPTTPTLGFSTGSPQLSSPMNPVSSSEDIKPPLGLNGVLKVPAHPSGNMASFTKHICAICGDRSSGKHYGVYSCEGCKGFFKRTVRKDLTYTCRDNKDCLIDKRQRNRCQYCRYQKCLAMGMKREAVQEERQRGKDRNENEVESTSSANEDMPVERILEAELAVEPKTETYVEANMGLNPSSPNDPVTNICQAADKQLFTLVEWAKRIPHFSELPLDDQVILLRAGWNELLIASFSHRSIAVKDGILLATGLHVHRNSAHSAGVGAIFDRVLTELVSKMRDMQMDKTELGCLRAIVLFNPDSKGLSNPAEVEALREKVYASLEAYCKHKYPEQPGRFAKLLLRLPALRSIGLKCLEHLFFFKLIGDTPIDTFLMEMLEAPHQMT
Outline: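 Compounds in DMSO were added to RXR-alpha-UAS-bla HEK 293T cells kept in 2% charcoal-stripped serum, and incubated 16 hr at 37 C with 5% CO2. Reporter signal came from a 2 hr B/G FRET substrate step.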

[11] = biological target: Vitamin D3 receptor (Homo sapiens) (UniProt P11473); assay: qHTS assay to identify small molecule antagonists of the vitamin D receptor (VDR) signaling pathway (AID 743223; active means well fitted inhibition curve with a large enough effect in the signal ratio in the repeat runs, not every such curve was filed as active; inconclusive means weak or mixed curves, or effect the other way; inactive means no such curve, though single readings can be large or run the other way; the % refers to the signal ratio; further: potency means the concentration at half of the fitted maximal effect; on activity change, negative = inhibition: on the % scale 0 is the no-effect control and ±100 the full control effect); details: VDR-UAS-bla HEK293T, beta-lactamase FRET ratio, 16 h; activity change, negative = inhibition: at 61 µM (top of the series) unless noted
Outline: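 Quantitative HTS in VDR-bla reporter cells stimulated with 1alpha,25-dihydroxyvitamin D3, 3 nM final. Compound exposure 16 h, 37C, 5% CO2. Read-out: beta-lactamase FRET substrate fluorescence, 2 h RT.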

[12] = qHTS assay to identify small molecule agonists of the AP-1 signaling pathway (AID 1159526; calls by dose curve; further: potency means the concentration at half of the fitted maximal effect; on activation: on the % scale 0 is the no-effect control and ±100 the full control effect); details: ME-180 (cervical carcinoma) AP-1-bla reporter, beta-lactamase FRET ratio, 5 h; activation: at 76.8 µM (top of the series) unless noted
[13] = qHTS assay to identify small molecule antagonists of the retinoid acid receptor (RAR) signaling pathway - cell viability counter screen (AID 1159551); further: potency means the concentration at half of the fitted maximal effect; nearly all actives have a fitted effect of over 35% in size
Outline: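 Cells (C3RL4) are plated, incubated overnight, dosed with compound in DMSO, then given retinol at 1 uM final. After 6 h at 37 C, CellTiter-Glo is added and luminescence read following 30 min at room temperature.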

[14] = biological target: Peroxisome proliferator-activated receptor delta (Homo sapiens) (UniProt Q03181); assay: qHTS assay to identify small molecule agonists of the peroxisome proliferator-activated receptor delta (PPARd) signaling pathway (AID 743212; calls by dose curve; further: potency means the concentration at half of the fitted maximal effect); details: HEK293H PPARd-UAS-bla, beta-lactamase FRET ratio, 17 h; activation: at 62.6 µM (top of the series) unless noted
UniProt Q03181, sequence (Q03181 whole entry, looked up): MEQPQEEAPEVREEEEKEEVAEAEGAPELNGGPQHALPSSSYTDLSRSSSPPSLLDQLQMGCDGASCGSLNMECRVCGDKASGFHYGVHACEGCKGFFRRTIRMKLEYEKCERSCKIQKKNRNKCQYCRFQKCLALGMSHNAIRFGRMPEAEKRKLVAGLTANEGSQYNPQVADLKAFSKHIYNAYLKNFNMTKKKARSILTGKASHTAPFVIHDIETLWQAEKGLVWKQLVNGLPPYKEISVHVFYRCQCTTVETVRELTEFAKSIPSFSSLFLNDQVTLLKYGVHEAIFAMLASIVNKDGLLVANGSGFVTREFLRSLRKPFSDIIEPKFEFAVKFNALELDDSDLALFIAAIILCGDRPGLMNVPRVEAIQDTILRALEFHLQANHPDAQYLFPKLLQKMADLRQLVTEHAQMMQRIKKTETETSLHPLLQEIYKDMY
Outline: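 Cells expressing a UAS-driven beta-lactamase reporter (PPARd-bla HEK293H) were given test compounds after a 5 h settle and kept at 37 C. Reporter activity was then measured as FRET fluorescence using LiveBLAzer B/G substrate.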

[15] = biological target: Peroxisome proliferator-activated receptor delta (Homo sapiens) (UniProt Q03181); assay: qHTS assay to identify small molecule antagonists of the peroxisome proliferator-activated receptor delta (PPARd) signaling pathway (AID 743215; active means well fitted inhibition curve with a large enough effect in the signal ratio in the repeat runs, not every such curve was filed as active; inconclusive means weak or mixed curves, or effect the other way; inactive means no such curve, though single readings can be large or run the other way; the % refers to the signal ratio;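 further: cells stimulated with agonist L165041 at 300 nM final during compound exposure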; further: potency means the concentration at half of the fitted maximal effect); details: HEK293H PPARd-UAS-bla, beta-lactamase FRET ratio, antagonist, 17 h; ratio activity, negative = inhibition: at 62 µM (top of the series) unless noted
Outline: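 Cells: HEK293H with a UAS-driven beta-lactamase reporter responsive to PPARd. Compounds were co-added with L165041 (300 nM, final) and incubated 17 h at 37 C before a 2 h room-temperature FRET substrate step and fluorescence reading.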

[16] = biological target: Bile acid receptor (Homo sapiens) (UniProt Q96RI1); assay: qHTS assay to identify small molecule agonists of the farnesoid-X-receptor (FXR) signaling pathway (AID 743220; active means well fitted activation curve with a large enough effect in the signal ratio in the repeat runs, not every such curve was filed as active; inconclusive means weak or mixed curves, or effect the other way; the % refers to the signal ratio; further: potency means the concentration at half of the fitted maximal effect); details: HEK293T FXR-UAS-bla, beta-lactamase FRET ratio, 16 h; activation: at 62.6 µM (top of the series) unless noted
Outline: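 FXR-UAS-bla HEK 293T cells carrying a UAS-driven beta-lactamase reporter were plated for 5 h at 37C/5% CO2, then exposed to DMSO-dissolved Tox21 10K compounds for 16 h at 37C. A LiveBLAzer B/G FRET substrate was loaded for 2 h at room temperature before fluorescence reading.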

[17] = qHTS assay to identify small molecule agonists of the AP-1 signaling pathway - cell viability counter screen (AID 1159525; calls by dose curve; further: nearly all actives have a fitted effect of over 55% in size)
Outline: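 Each titration point was normalised to DMSO and tetra n-octyl ammonium bromide controls. The read was Cell Titer Glo luminescence after 30 min at RT, following 5 h compound exposure of ME-180 AP-1-bla cells at 37 °C.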

[18] = qHTS assay to identify small molecule agonists of the RXR signaling pathway - cell viability counter screen (AID 1159529)
Outline: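 Counter screen: CellTiter-Glo luminescence. Cells: RXR-alpha-UAS-bla HEK 293T. Medium: 2% charcoal-stripped FBS. Treatment: 16 h, 37 C. Reagent incubation: 30 min, RT.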
Tags describe the fitted curve by direction and shape or compound fluorescence and quenching.

CC(C)(C)CC(C)(C)c1ccc(OCCO)cc1
inconclusive: Potency [1] 61.3 µM [cytotoxic, single point] | Potency [2] 61.3 µM [inhibitor, single point] | Potency [3] 17.3 µM [rising, partial curve, poor fit] | Potency [4] 61.3 µM [falling, single point] | Potency [5] 5.46 µM [rising, full curve] | Potency [7] 43.4 µM [cytotoxic, partial curve, poor fit] | Potency [9] 48.3 µM [cytotoxic, partial curve, poor fit] | Potency [10] 38.7 µM [inhibitor, partial curve, poor fit]
inactive: Potency [8]
active: Potency [6] 38.7 µM

C/C(=C1\CCOC(=O)S1)N(C=O)Cc1cnc(C)nc1N
inactive: Potency [11] | Potency [8] | Potency [9]
inconclusive: Potency [3] 33.5 µM [cytotoxic, single point] | Potency [7] 0.848 µM [rising, partial curve, poor fit]

CC(C)(C)NC(N)=O
inconclusive: Potency [3] 0.155 µM [rising, full curve, poor fit]
inactive: Potency [8] | Potency [9] | Potency [12]

O=C1c2ccccc2C(=O)c2c(O)c(O)cc(O)c21
inconclusive: activation [8] -2.77% | Potency [9] 30.6 µM [cytotoxic, partial curve, poor fit] | activation [10] -21.9% | Potency [13] 30.6 µM [cytotoxic, partial curve]

O=C(O)/C=C/c1ccc(O)c(O)c1
inconclusive: Potency [14] 39.2 µM [rising, partial curve] | Potency [5] 24.8 µM [fluorescent, partial curve, poor fit] | Potency [6] 62.2 µM [rising, single point] | activation [8] 2.93% [at 78.8 µM] | activation [10] 11%
inactive: Potency [1] | Potency [9]

C=Cc1ccc(OC(C)=O)cc1
inconclusive: activation [8] 5.65%
inactive: Potency [14] | Potency [5] | Potency [11] | Potency [9] | Potency [10]

C/C=C\C/C=C/CCCCCCCCOC(C)=O
inconclusive: ratio activity, negative = inhibition [15] -41.1% | activity change, negative = inhibition [2] -12% | Potency [3] 43.6 µM [cytotoxic, partial curve, poor fit] | Potency [5] 54.9 µM | Potency [11] 43.6 µM [rising, partial curve, poor fit] | Potency [7] 54.9 µM [cytotoxic, partial curve, poor fit] | activation [8] -10.9% | Potency [9] 77 µM [cytotoxic, partial curve, poor fit] | Potency [12] 43.6 µM [falling, single point] | Potency [10] 34.7 µM [rising, partial curve]

CN(C)[C@@H]1C(=O)C(C(N)=O)=C(O)[C@@]2(O)C(=O)C3=C(O)c4c(O)cccc4C[C@H]3C[C@@H]12
inconclusive: Potency [14] 26.6 µM [partial curve] | Potency [15] 26.6 µM | Potency [2] 23.7 µM [partial curve, poor fit] | Potency [16] 23.7 µM [rising, partial curve] | Potency [5] 26.6 µM [rising, partial curve] | Potency [11] 23.9 µM | Potency [8] 23.9 µM [fluorescent, partial curve] | Potency [9] 29.8 µM [cytotoxic, single point]
inactive: Potency [1] | Potency [6]

O=C(O)CCC(=O)c1ccc(-c2ccccc2)cc1
inconclusive: Potency [8] 5.35 µM [rising, full curve] | Potency [10] 23.9 µM [activator]
inactive: Potency [1] | Potency [3] | Potency [9] | Potency [17]

CC(=O)S[C@@H]1CC2=CC(=O)CC[C@]2(C)[C@H]2CC[C@@]3(C)[C@@H](CC[C@@]34CCC(=O)O4)[C@H]12
inconclusive: Potency [14] 30.9 µM [partial curve, poor fit] | Potency [15] 17.4 µM [rising, full curve] | Potency [4] 38.9 µM [falling, partial curve, poor fit] | Potency [5] 8.71 µM [rising, full curve] | Potency [11] 43.6 µM [fluorescent, partial curve] | Potency [8] 49 µM [rising, single point] | Potency [10] 19.5 µM [rising, partial curve] | Potency [18] 38.9 µM [cytotoxic, partial curve, poor fit]
inactive: Potency [9]

O=C1c2c(O)ccc(Nc3ccc(CCO)cc3)c2C(=O)c2c([N+](=O)[O-])ccc(O)c21
inconclusive: ratio activity, negative = inhibition [15] 10% | Potency [8] 54.9 µM [cytotoxic, single point] | Potency [9] 48.6 µM [cytotoxic, partial curve] | Potency [12] 49 µM [falling, single point] | activation [10] -19.2% | Potency [13] 48.6 µM [cytotoxic, partial curve]
